Measured values: the supplement of paper PMC9446081
Screen size: about 39,000 compounds; about 220 (0.56%) showed activity. This is one part of the list.

test system: Escherichia coli K-12 BW25113; assay: relative growth (OD600 normalised to plate interquartile mean) (fraction); higher = less growth inhibition, active = 0.2 or less; conditions: 50 µM; LB; incubation time: overnight (16-24 h)
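Note: static incubation at 37 °C against the wild-type strain, values averaged over two biological replicates.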

Question: Which relative growth does the source give for NCCS here?
Answer: Its relative growth is inactive: 0.974.

Question: COCCOC(=O)C1=C(C)NC(C)=C(C(=O)OC(C)C)C1c1cccc([N+](=O)[O-])c1 (stereo not drawn) was tested. Which relative growth did it give?
Answer: The relative growth was inactive: 1.05.

Question: NC(=O)N1CCC(=O)Nc2ccccc21 was tested. Which relative growth did it give?
Answer: Its relative growth is inactive: 1.02.

Question: With Cc1ccc(S[C@]2(C(=O)O)CC(=O)N(Cc3cc(C(F)(F)F)cc(C(F)(F)F)c3)[C@@H]2c2ccc(CO)cc2)cc1 as the molecule, how does the relative growth read?
Answer: Its relative growth is inactive: 0.925.

Question: How did the relative growth turn out when C=CCOC(=O)[C@@H]1[C@H]2C(=O)O[C@H](c3ccccc3)[C@H](c3ccccc3)N2[C@H](c2ccc(OCCOC(=O)[C@H]3C[C@H]4C(=O)NCC(=O)N4[C@H]3c3cccc(OCCO)c3)cc2)[C@@]12C(=O)Nc1ccc(I)cc12 was run?
Answer: The relative growth was inactive: 1.02.

Question: With CO[C@H]1CN(C)C(=O)c2ccc(NC(=O)Nc3cccc(F)c3)cc2OC[C@@H](C)N(C(=O)Nc2c(C)noc2C)C[C@H]1C as the molecule, how does the relative growth read?
Answer: Its relative growth is inactive: 0.953.

Question: CNC(=O)Cn1c(=O)c2c(OC)ccnc2n(C)c1=O was tested. Which relative growth did it give?
Answer: The relative growth was inactive: 0.99.

Question: Which relative growth does the source give for C[C@@H]1CCCCO[C@@H](CN(C)C(=O)Nc2cccc3ccccc23)[C@H](C)CN([C@@H](C)CO)C(=O)c2cc(NC(=O)Nc3ccc(F)cc3)ccc2O1 here?
Answer: The relative growth was inactive: 1.09.

Question: With C[C@H](CO)N1C[C@H](C)[C@@H](CN(C)Cc2ccc(Oc3ccccc3)cc2)Oc2ccc(NC(=O)Nc3ccc4c(c3)OCO4)cc2C1=O as the molecule, how does the relative growth read?
Answer: The relative growth was inactive: 1.02.

Question: With C[C@H](CO)N1C[C@H](C)[C@H](CN(C)S(=O)(=O)c2cn(C)cn2)OCc2cnnn2CCCC1=O as the molecule, how does the relative growth read?
Answer: The relative growth was inactive: 1.01.

Question: Which relative growth does the source give for COc1ccc(S(=O)(=O)Nc2cccc3c2O[C@@H](CN(C)Cc2ccc(Oc4ccccc4)cc2)[C@@H](C)CN([C@@H](C)CO)C3=O)cc1 here?
Answer: Its relative growth is inactive: 1.02.

Question: For C[C@@H]1CCCCO[C@@H](CN(C)Cc2ccccc2)[C@@H](C)CN([C@@H](C)CO)C(=O)c2cc(NS(=O)(=O)c3ccc(F)cc3)ccc2O1, which relative growth is on record?
Answer: The relative growth was inactive: 0.984.

Question: With O=C(C[C@@H]1CC[C@@H]2[C@H](COC[C@@H](O)CN2C(=O)c2ccccc2)O1)N1CCOCC1 as the molecule, how does the relative growth read?
Answer: The relative growth was inactive: 0.976.

Question: How did the relative growth turn out when Cc1ccc(S(=O)(=O)Nc2ccc3c(c2)C(=O)N([C@@H](C)CO)C[C@@H](C)[C@H](CN(C)C(=O)Nc2ccc(C(F)(F)F)cc2)O3)cc1 was run?
Answer: Its relative growth is inactive: 0.9.

Question: With O=C(C[C@H]1C[C@@H]2c3cc(NC(=O)c4ccc5c(c4)OCO5)ccc3O[C@@H]2[C@H](CO)O1)NCCN1CCCCC1 as the molecule, how does the relative growth read?
Answer: The relative growth was inactive: 0.975.

Question: Which relative growth does the source give for CN1C(C(=O)Nc2ccccn2)=C(O)c2ccccc2S1(=O)=O here?
Answer: Its relative growth is inactive: 0.938.

Question: For CC(=O)OCC(=O)C1(O)CCC2C3CCC4CC(O)CCC4(C)C3C(=O)CC21C (stereo not drawn), which relative growth is on record?
Answer: The relative growth was inactive: 1.11.

Question: With O=C(C[C@@H]1CC[C@@H](NS(=O)(=O)c2ccc(F)cc2)[C@@H](CO)O1)N1CCC(Cc2ccccc2)CC1 as the molecule, how does the relative growth read?
Answer: Its relative growth is inactive: 0.987.

Question: Which relative growth does the source give for COCC(=O)N1C[C@@H](C)[C@H](OC)CN(C)C(=O)c2ccc(NC(=O)Nc3ccccc3)cc2OC[C@H]1C here?
Answer: The relative growth was inactive: 1.01.

Question: With C[C@H]1CN([C@@H](C)CO)C(=O)c2cc(NC(=O)Cn3cnnn3)ccc2O[C@@H]1CN(C)Cc1ccc(C(=O)O)cc1 as the molecule, how does the relative growth read?
Answer: Its relative growth is inactive: 0.998.

Question: How did the relative growth turn out when C[C@@H]1CN([C@H](C)CO)C(=O)c2c(c3ccccc3n2C)-c2ccccc2CO[C@H]1CN(C)C(=O)Nc1ccccc1 was run?
Answer: Its relative growth is inactive: 0.96.

Question: For O=C(C[C@@H]1C[C@H]2c3cc(NC(=O)Nc4ccccc4)ccc3O[C@H]2[C@H](CO)O1)NCCN1CCCCC1, which relative growth is on record?
Answer: The relative growth was inactive: 1.01.

Question: For COc1ccc2c3c(n(c2c1)C)[C@H](CO)N(C[C@]13CN(CC2CCOCC2)C1)C(=O)Cc1ccccn1, which relative growth is on record?
Answer: Its relative growth is inactive: 0.969.

Question: Which relative growth does the source give for COc1cccc(NC(=O)N2C[C@@H](O)COC[C@H]3O[C@@H](CC(=O)NC4Cc5ccccc5C4)CC[C@@H]32)c1 here?
Answer: Its relative growth is inactive: 0.988.

Question: For C[C@@H]1CCCCO[C@@H](CN(C)S(=O)(=O)c2cccs2)[C@H](C)CN([C@@H](C)CO)C(=O)c2cc(NS(=O)(=O)c3cn(C)cn3)ccc2O1, which relative growth is on record?
Answer: The relative growth was inactive: 1.

Question: Which relative growth does the source give for COc1ccc(S(=O)(=O)Nc2ccc3c(c2)C(=O)N([C@@H](C)CO)C[C@H](C)[C@@H](CN(C)S(=O)(=O)c2ccc(Cl)cc2)OCCCC[C@@H](C)O3)cc1 here?
Answer: The relative growth was inactive: 1.02.

Question: CO[C@H]1CN(C)C(=O)c2cc(NC(=O)C3CC3)ccc2OC[C@@H](C)N(C(=O)Cc2ccccn2)C[C@@H]1C was tested. Which relative growth did it give?
Answer: The relative growth was inactive: 0.981.

Question: C[C@@H]1CCCCO[C@H](CN(C)Cc2ccc(C(=O)O)cc2)[C@@H](C)CN([C@@H](C)CO)C(=O)c2cc(NC(=O)c3ccccc3)ccc2O1 was tested. Which relative growth did it give?
Answer: Its relative growth is inactive: 1.01.

Question: How did the relative growth turn out when COc1ccc(NC(=O)Nc2cccc3c2O[C@@H](CN(C)Cc2ccc(-c4ccccc4)cc2)[C@H](C)CN([C@H](C)CO)C3=O)cc1 was run?
Answer: Its relative growth is inactive: 1.01.

Question: For C[C@@H]1CCCCO[C@@H](CN(C)C(=O)Cc2ccccc2)[C@H](C)CN([C@@H](C)CO)C(=O)c2cc(NC(=O)NC3CCCCC3)ccc2O1, which relative growth is on record?
Answer: Its relative growth is inactive: 1.

Question: OCc1cccc(CO)c1F was tested. Which relative growth did it give?
Answer: Its relative growth is inactive: 1.04.

Question: NCc1cnn(-c2ccc(F)cc2)c1 was tested. Which relative growth did it give?
Answer: Its relative growth is inactive: 0.988.

Question: For C[C@@H]1CN([C@H](C)CO)C(=O)c2cc(NC(=O)Nc3cccc4ccccc34)ccc2O[C@H]1CN(C)Cc1ccc(Oc2ccccc2)cc1, which relative growth is on record?
Answer: The relative growth was inactive: 1.01.

Question: O=C(O)Cn1nnnc1-c1ccc(F)cc1 was tested. Which relative growth did it give?
Answer: Its relative growth is inactive: 0.995.

Question: Which relative growth does the source give for COc1ccccc1-c1cnc2c(c1)C(=O)N([C@@H](C)CO)C[C@H](C)[C@H](CN(C)C(=O)c1cccnc1)O2 here?
Answer: The relative growth was inactive: 1.01.

Question: For C[C@H]1CN([C@@H](C)CO)S(=O)(=O)c2ccc(C3=CCCC3)cc2O[C@H]1CN(C)C(=O)c1cnccn1, which relative growth is on record?
Answer: Its relative growth is inactive: 1.02.

Question: For Cc1cn(CC(=O)NCCN)c(=O)[nH]c1=O, which relative growth is on record?
Answer: Its relative growth is inactive: 0.97.

Question: How did the relative growth turn out when C[C@@H]1CN([C@@H](C)CO)C(=O)c2c(c3ccccc3n2C)-c2ccccc2CO[C@@H]1CN(C)Cc1cccc(O)c1 was run?
Answer: The relative growth was inactive: 0.956.

Question: CC(C)CN1C(=O)C[C@@H](N2CCOCC2)C1=O was tested. Which relative growth did it give?
Answer: The relative growth was inactive: 1.01.

Question: How did the relative growth turn out when O=C(O)c1ccc(-n2nc(-c3ccccc3O)nc2-c2ccccc2O)cc1 was run?
Answer: The relative growth was inactive: 1.04.

Question: How did the relative growth turn out when Cc1ccc(S(=O)(=O)Nc2ccc3c(c2)CC(=O)N([C@H](C)CO)C[C@H](C)[C@H](CN(C)S(=O)(=O)c2cn(C)cn2)O3)cc1 was run?
Answer: Its relative growth is inactive: 0.996.

Question: C[C@@H]1CN([C@@H](C)CO)C(=O)c2cccc(NC(=O)Nc3ccccc3)c2O[C@H]1CN(C)Cc1ccc(Cl)c(Cl)c1 was tested. Which relative growth did it give?
Answer: Its relative growth is inactive: 0.955.

Question: With CC(C)NC(=O)N(C)C[C@H]1OCc2cnnn2CCCC(=O)N([C@H](C)CO)C[C@H]1C as the molecule, how does the relative growth read?
Answer: Its relative growth is inactive: 1.03.

Question: With CC(C)(C)[S@@](=O)N1Cc2cc(C(=O)NCCc3ccncc3)nc(-c3cccc(-c4ccc(C#N)cc4)c3)c2[C@H]1CCO as the molecule, how does the relative growth read?
Answer: The relative growth was inactive: 1.01.

Question: With CC(=O)N1C[C@@H]2CN(c3ncccn3)CC[C@H]2C1 as the molecule, how does the relative growth read?
Answer: Its relative growth is inactive: 1.

Question: C[C@H](CO)N1C[C@H](C)[C@@H](CN(C)Cc2ccc(-c3ccccc3)cc2)Oc2ccc(NS(=O)(=O)c3cccs3)cc2C1=O was tested. Which relative growth did it give?
Answer: Its relative growth is inactive: 0.996.

Question: Which relative growth does the source give for C[C@@H]1CN([C@@H](C)CO)C(=O)Cc2cc(NC(=O)C3CCCCC3)ccc2O[C@H]1CN(C)C(=O)Nc1cccc2ccccc12 here?
Answer: Its relative growth is inactive: 1.01.

Question: For C[C@@H]1CCCCO[C@H](CN(C)C(=O)Nc2ccc(F)cc2)[C@H](C)CN([C@H](C)CO)C(=O)c2cc(NC(=O)c3ccccc3)ccc2O1, which relative growth is on record?
Answer: The relative growth was inactive: 1.02.

Question: Which relative growth does the source give for COc1ccc(NC(=O)Nc2ccc3c(c2)C(=O)N([C@@H](C)CO)C[C@@H](C)[C@H](CN(C)C(=O)Nc2ccc4c(c2)OCO4)OCCCC[C@@H](C)O3)cc1 here?
Answer: Its relative growth is inactive: 1.03.

Question: How did the relative growth turn out when Cn1c(=O)sn(-c2ccccc2)c1=O was run?
Answer: Its relative growth is inactive: 1.03.

Question: Which relative growth does the source give for C[C@@H]1CC=CC[C@H](c2ccc3c(c2)OCO3)NC(=O)[C@@H](Cc2ccccc2)N(C)C(=O)c2ccccc2O1 here?
Answer: Its relative growth is inactive: 1.05.

Question: With C[C@H](CO)N1C[C@H](C)[C@@H](CN(C)Cc2ccc(C(F)(F)F)cc2)Oc2ccc(NC(=O)CCCCCC(=O)Nc3ccccc3N)cc2C1=O as the molecule, how does the relative growth read?
Answer: Its relative growth is inactive: 1.04.

Question: For C[C@H](CO)N1C[C@H](C)[C@H](CN(C)C(=O)Nc2ccc3c(c2)OCO3)Oc2ccc(NC(=O)Nc3cccc4ccccc34)cc2CC1=O, which relative growth is on record?
Answer: The relative growth was inactive: 1.

Question: With C[C@@H]1CN([C@H](C)CO)C(=O)c2cc(NC(=O)Cc3ccccc3)ccc2O[C@@H](C)CCCCO[C@H]1CN(C)Cc1ccc2c(c1)OCO2 as the molecule, how does the relative growth read?
Answer: The relative growth was inactive: 1.

Question: For COc1ccc([C@H]([C@H](Cc2ccccc2)OC(C)=O)N(C/C=C\[C@@H](O)c2ccccc2)[C@@H](Cc2ccccc2)C(OC)OC)cc1, which relative growth is on record?
Answer: The relative growth was inactive: 0.958.

Question: With CN1C(=O)[C@@]2(c3cc(Cl)ccc31)[C@H](C(=O)O)[C@H]1C(=O)O[C@H](c3ccccc3)[C@H](c3ccccc3)N1[C@@H]2c1ccc(F)cc1 as the molecule, how does the relative growth read?
Answer: The relative growth was inactive: 0.947.

Question: For CCCCCC(=O)Cc1cc(O)cc(O)c1C(=O)Oc1cc(CC(=O)CCCCC)c(C(=O)O)c(OC)c1, which relative growth is on record?
Answer: The relative growth was inactive: 0.774.

Question: How did the relative growth turn out when COc1ccc(N2C(=O)N3CCc4cc(OC)c(OC)cc4[C@@H]3[C@@H](Cc3ccccc3)[C@H]2COC(=O)NCCCCCC(=O)NO)cc1 was run?
Answer: Its relative growth is inactive: 0.981.

Question: Which relative growth does the source give for COc1ccc([C@H]2CNCCN2)cc1 here?
Answer: The relative growth was inactive: 0.986.

Question: For COc1ccc(S(=O)(=O)Nc2ccc3c(c2)C(=O)N([C@@H](C)CO)C[C@@H](C)[C@H](CN(C)Cc2ccccc2)OCCCC[C@H](C)O3)cc1, which relative growth is on record?
Answer: The relative growth was inactive: 1.02.

Question: How did the relative growth turn out when COc1ccc(-c2coc3cc(O)ccc3c2=O)c(O)c1O was run?
Answer: Its relative growth is inactive: 1.11.

Question: How did the relative growth turn out when Cc1nnc(SCC2=C(C(=O)[O-])N3C(=O)C(NC(=O)Cn4cnnn4)C3SC2)s1.[Na+] (stereo not drawn) was run?
Answer: The relative growth was active: 0.0433.

Question: With CO[C@@H]1CN(C)C(=O)c2cc(NC(=O)c3ccc(F)cc3)ccc2OC[C@@H](C)N(C(=O)CN(C)C)C[C@H]1C as the molecule, how does the relative growth read?
Answer: Its relative growth is inactive: 0.988.
